From PubChem BioAssay AID493035 (The Scripps Research Institute Molecular Screening Center, 2011)
“And” between values parts separate entries of the source, which are not always exact repeats. Identical values can stand only once. Out of some 2,000 compounds screened, about 45 (2%) were called active.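 Rule for the calls: active = inhibition above the mean of all tested compounds plus 3 SD (cut at about 49% in these data); inactive = the rest.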 The list shows a part of the results.

What follows are compounds tested against Perilipin-5 (Homo sapiens) + 1-acylglycerol-3-phosphate O-acyltransferase ABHD5 (Homo sapiens) (UniProt Q00G26+Q8WTS1) (assay: ABHD5-PLIN5 interaction inhibitors, pilot screen, cell lysate, split luciferase complementation, luminescence, NIH validation set (AID 493035;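 note: 0% = DMSO only wells while the 100% control is not stated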)). Conditions: split G. princeps luciferase complementation, lysates, 4 h; at 7.9 µM, hits give high values.
Sequence of UniProt Q00G26 (Q00G26 whole entry, looked up): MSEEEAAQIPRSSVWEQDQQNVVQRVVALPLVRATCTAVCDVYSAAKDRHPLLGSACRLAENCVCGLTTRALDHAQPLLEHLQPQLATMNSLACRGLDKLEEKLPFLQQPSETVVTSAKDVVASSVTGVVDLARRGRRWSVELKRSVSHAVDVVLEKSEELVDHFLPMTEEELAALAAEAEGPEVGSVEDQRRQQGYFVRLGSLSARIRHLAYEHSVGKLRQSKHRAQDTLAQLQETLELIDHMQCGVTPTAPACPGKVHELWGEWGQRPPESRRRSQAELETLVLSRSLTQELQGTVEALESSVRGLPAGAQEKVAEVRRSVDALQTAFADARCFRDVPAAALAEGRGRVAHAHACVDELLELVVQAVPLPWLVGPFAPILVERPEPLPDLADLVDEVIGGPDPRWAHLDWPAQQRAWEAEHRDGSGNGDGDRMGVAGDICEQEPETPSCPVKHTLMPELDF
Sequence of UniProt Q00G26 (Q8WTS1 whole entry, looked up): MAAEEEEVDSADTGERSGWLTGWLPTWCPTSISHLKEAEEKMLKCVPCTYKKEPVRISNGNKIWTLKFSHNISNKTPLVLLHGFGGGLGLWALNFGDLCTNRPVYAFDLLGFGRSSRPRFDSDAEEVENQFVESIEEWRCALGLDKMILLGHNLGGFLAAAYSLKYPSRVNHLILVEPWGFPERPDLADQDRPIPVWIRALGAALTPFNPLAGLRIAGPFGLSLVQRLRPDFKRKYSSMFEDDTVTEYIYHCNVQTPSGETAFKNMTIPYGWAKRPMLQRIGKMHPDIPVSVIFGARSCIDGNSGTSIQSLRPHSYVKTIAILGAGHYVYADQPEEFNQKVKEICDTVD
With `CC(=O)OCC(=O)[C@@]1(OC(C)=O)[C@@H](C)C[C@H]2[C@@H]3C[C@H](F)C4=CC(=O)C=C[C@]4(C)[C@@]3(F)[C@@H](O)C[C@@]21C` the inhibition was inactive: -7.9%. `CC(N=C(NC#N)Nc1ccncc1)C(C)(C)C` (stereo not drawn) was tested, and the inhibition was inactive: -5.72%. In the case of `COc1ccc(CN(C)CCc2ccccn2)cc1OC`, the inhibition is reported as inactive: -9.76%. With `S=C(NCc1ccccc1)NCc1cccc(CNC(=S)NCc2ccccc2)c1` the inhibition was inactive: 10.2%. In the case of `Oc1[nH]c2ccccc2c1N=Nc1ccccc1`, the inhibition is reported as inactive: 1.06%. With `C=CCn1c(N2CCCCCC2)nc2c1c(=O)n(C)c(=O)n2C` the inhibition was inactive: 0.31%. In the case of `CCOC(=O)Cn1c(C)cc(=O)c2ccccc21`, the inhibition is reported as inactive: 8.9%. `CC(=O)OCC(=O)[C@H]1CC[C@H]2[C@@H]3CCC4=CC(=O)CC[C@]4(C)[C@H]3CC[C@]12C` was tested, and the inhibition was inactive: -0.63%. In the case of `COc1cc2nc(-c3ccccc3)nc(N3CCCC3)c2cc1OC`, the inhibition is reported as inactive: 2.89%. With `C#C[C@]1(O)CC[C@H]2[C@@H]3CCC4=CC(=O)CC[C@@H]4[C@H]3CC[C@@]21CC` the inhibition was inactive: -7.35%. `O=c1[nH]c(Cc2ccccc2)nc2c1oc1ccccc12` was tested, and the inhibition was inactive: -8.6%. In the case of `O=C(NO)c1ccccc1O`, the inhibition is reported as inactive: -11.8%. `Cc1cccc(NC(=O)c2cc3ccccc3o2)c1` was tested, and the inhibition was inactive: -6.38%. In the case of `c1ccc(CN(CC2=NCCN2)c2ccccc2)cc1`, the inhibition is reported as inactive: -2.78% and inactive: -2.7%. In the case of `O=C(NCCN1CCN(c2ccccc2)CC1)c1cccc(Br)c1`, the inhibition is reported as inactive: -10.2%. In the case of `CC(C)CN1CCN(Cc2ccc3ncccc3c2)CC1CCO` (stereo not drawn), the inhibition is reported as inactive: -10.9%. With `CCOc1ccc(CCn2c(-c3ccco3)nc3ccccc3c2=O)cc1OCC` the inhibition was inactive: 5.88%. `COc1ccc(/C=C2\CCn3c2nc2cc(C(=O)O)ccc2c3=O)cc1OC` was tested, and the inhibition was inactive: -3.54%. `COc1ccc(O)c(N)c1` was tested, and the inhibition was inactive: 33.6%. `COc1cc2c3c(c1)C(C)CC(C)(C)N3C(=O)C2=O` (stereo not drawn) was tested, and the inhibition was inactive: 3.84%. With `S=C(c1ccc2c(c1)OCO2)N1CCCCC1` the inhibition was inactive: 7.46%. `COc1ccc(C(=O)NCc2cccnc2)cc1` was tested, and the inhibition was inactive: -0.13%. In the case of `CC(=O)Nc1ccccc1O`, the inhibition is reported as inactive: 1.71%. With `O=c1cc(Cn2ccnc2)c2cc3c(cc2o1)CCC3` the inhibition was inactive: 7.19%. In the case of `O=c1oc2c(CN3CCN(CCO)CC3)c(O)ccc2cc1-c1ccccn1`, the inhibition is reported as inactive: 0.47%. With `CCOC(=O)c1cnc2ccc(C(=O)OC)cc2c1Nc1ccc2c(c1)OCCO2` the inhibition was inactive: 4.48%. In the case of `Cc1ccc2c(c1)C(O)(CC(=O)/C=C/C=C/c1ccccc1)C(=O)N2` (stereo not drawn), the inhibition is reported as inactive: 24.3%. For `COc1ccccc1OCC(=O)O`, the inhibition was inactive: -2.3%. `CCCCC/C=C\C[C@H](O)/C=C/c1cccc(C[C@H](O)CCCCO)n1` was tested, and the inhibition was active: 62.8%. `COc1ccc(C2C3=C(CC(C)(C)CC3=O)N(C)C3=C2C(=O)CC(C)(C)C3)cc1` was tested, and the inhibition was inactive: -2.33%. With `C#CCN(C)CCCOc1ccc(Cl)cc1Cl` the inhibition was inactive: -7.85%. `Cc1c(NC(=O)c2cccs2)cccc1[N+](=O)[O-]` was tested, and the inhibition was inactive: -6.81%. `Cc1nc2cc3ccccc3cc2c(=O)[nH]1` was tested, and the inhibition was inactive: -4.91%. With `COc1cccc(CN2C(=O)N(C(C)C)C(N(O)C(=O)NC(C)C)C2(C)C)c1OC` (stereo not drawn) the inhibition was inactive: 3.16%. With `COc1ccc2c(c1)[nH]c1c(=O)n(Cc3ccccn3)cnc12` the inhibition was inactive: -7.19%. For `Cn1c(=O)[nH]c(=O)c2c1nc(NCc1ccco1)n2CCCc1ccccc1`, the inhibition was inactive: -10%. `CC1(C)CC(=O)c2cnc(NC(=O)C3CCCC3)nc2C1` was tested, and the inhibition was inactive: -3.56%. With `COc1ccc(-n2cc(CNCc3cccnc3)c(-c3cccc(F)c3)n2)cc1` the inhibition was inactive: -9.1%. In the case of `Cn1c(=O)c2c(ncn2CCO)n(C)c1=O`, the inhibition is reported as inactive: -4.57%. `O=C1CC(c2ccc(F)cc2)Cc2nc(NCC3CCCO3)ncc21` (stereo not drawn) was tested, and the inhibition was inactive: -4.51%. In the case of `CNCCCN1c2ccccc2CCc2ccccc21`, the inhibition is reported as inactive: -21.2%. With `C[n+]1ccccc1/C=N/O` the inhibition was inactive: -9.84% and inactive: -11.4%. With `COc1ccc(CN2CCCCC2C(=O)Nc2ccc(OC)c(OCC(C)C)c2)cc1OC` (stereo not drawn) the inhibition was inactive: -8.58%. With `CCC(C)n1ncn(-c2ccc(N3CCN(c4ccc(OCC5COC(Cn6cncn6)(c6ccc(Cl)cc6Cl)O5)cc4)CC3)cc2)c1=O` (stereo not drawn) the inhibition was inactive: 7.17%. With `Cc1cccc(Nc2ccccc2C(=O)O)c1C` the inhibition was inactive: -3.59%. With `CCOc1ncnc2c1[nH]c1ccccc12` the inhibition was inactive: -0.72%. `CC1(C)S[C@@H]2[C@H](NC(=O)Cc3ccccc3)C(=O)N2[C@H]1C(=O)O` was tested, and the inhibition was inactive: 0.2%. For `Cc1cc(=O)c2c(O)c(O)ccc2o1`, the inhibition was inactive: -3.3%. For `CCCCCCCC(=O)OCC(=O)[C@@]1(O)CC[C@H]2[C@@H]3CCC4=CC(=O)CC[C@]4(C)[C@H]3[C@@H](O)C[C@@]21C`, the inhibition was inactive: -10.7%. With `COc1cc(OC)c(-c2nc3cnccc3n2C)cc1OC` the inhibition was inactive: -12.5%. `COc1cccc(OCC(O)CO)c1` (stereo not drawn) was tested, and the inhibition was inactive: -6.51%. With `CCOC(=O)N1c2ccccc2C=CC1OCC` (stereo not drawn) the inhibition was inactive: 5.45%. In the case of `CC(C)CN1CCN(Cc2cccn2-c2ccccn2)CC1CCO` (stereo not drawn), the inhibition is reported as inactive: -3.71%. In the case of `CCC(=O)c1ccc(OCc2ccc(C(=O)OC)cc2)cc1`, the inhibition is reported as inactive: -2.89%. With `COc1cc(/C=C/C(=O)CC(=O)/C=C/c2ccc(O)c(OC)c2)ccc1O` the inhibition was inactive: 47.6%. For `CC1(C)C(C=C(Cl)Cl)C1C(=O)N1CCN(Cc2ccccc2)CC1` (stereo not drawn), the inhibition was inactive: -7.72%. For `CNC(=O)Oc1ccc2c(c1)[C@]1(C)CCN(C)[C@@H]1N2C`, the inhibition was inactive: -11.1%. `CC12CN3CC(C)(CN(C1)C3c1ccc(Cl)cc1Cl)C2=O` (stereo not drawn) was tested, and the inhibition was inactive: -5.63%. `Cc1cc(O)c(C(=O)Cc2csc(C)n2)c(O)c1` was tested, and the inhibition was inactive: 4.2%. For `O=c1[nH]cnc2[nH]ncc12`, the inhibition was inactive: 5.6%. For `CN(C)C(=O)Oc1cccc([N+](C)(C)C)c1`, the inhibition was inactive: -4.57% and inactive: -0.44%. In the case of `CN1CCC(OC(c2ccccc2)c2ccccc2)CC1`, the inhibition is reported as inactive: -7.92%. `NC(CO)C(=O)NNCc1ccc(O)c(O)c1O` (stereo not drawn) was tested, and the inhibition was inactive: 8.62%.
